# Experimental data: PubChem BioAssay AID1745853 (National Center for Advancing Translational Sciences (NCATS), 2022)
# Several values for one entry are separate records, joined by “and”; a condition that tells them apart may be missing. Identical values can stand only once. The list shows a part of the results. The main result of the screen is listed elsewhere. These columns were measured beside it and carry no call.
# Key:
# Test in all cases: Primary Screen for Target Class Profiling of Small Molecule Inhibitors of Methyltransferases
# [1] = target: Glycine N-methyltransferase (Homo sapiens) (UniProt Q14749); conditions: purified enzyme, MTase-Glo SAH luminescence; measured here: GNMT inhibition; at 40 µM; stronger effect = lower value
# Summary of the method: (§1)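 Each enzyme was assayed with SAM and its substrate. SAH formation detected by MTase-Glo luminescence; single-point 40 uM screen[…].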
# [2] = target: Guanidinoacetate N-methyltransferase (Homo sapiens) (UniProt Q14353); conditions: purified enzyme, MTase-Glo SAH luminescence; measured here: GAMT inhibition; at 40 µM; stronger effect = lower value
# Summary of the method: as §1
# [3] = target: Histamine N-methyltransferase (Homo sapiens) (UniProt P50135); conditions: purified enzyme, MTase-Glo SAH luminescence; measured here: HNMT inhibition; at 40 µM; stronger effect = lower value
# Summary of the method: as §1
# [4] = target: Nicotinamide N-methyltransferase (Homo sapiens) (UniProt P40261); conditions: purified enzyme, MTase-Glo SAH luminescence; measured here: NNMT inhibition; at 40 µM; stronger effect = lower value
# Summary of the method: as §1
# [5] = target: Phenylethanolamine N-methyltransferase (Homo sapiens) (UniProt P11086); conditions: purified enzyme, MTase-Glo SAH luminescence; measured here: PNMT inhibition; at 40 µM; stronger effect = lower value
# Summary of the method: as §1
# % is scaled to controls: 0 for no effect and ±100 for the full control effect.
Structure (SMILES),"activity change, negative = inhibition [1] [%]","activity change, negative = inhibition [2]","activity change, negative = inhibition [3] [%]","activity change, negative = inhibition [4]","activity change, negative = inhibition [5]"
CC(=O)SC1CC2=CC(=O)CC[C@]2(C)C2CC[C@@]3(C)C(CC[C@@]34CCC(=O)O4)C12 (some centres not stated),-3.17,13.9%,8.29,-5.25%,5.97%
CN(C)Cc1nnc(C2CCN(C(=O)CCNS(C)(=O)=O)CC2)n1C,-1.16,-3.58%,-0.223,-8.04%,-3.92%
COC(=O)c1ncn2c1C(=O)N(CCc1cccs1)C(C)(C(=O)NC1CCCCCC1)C2 (configuration not stated),9.84,0%,6.27,7.83%,5.07%
CCOc1ccc(N2C(=O)c3cc4oc(C)cc4n3CC2(C)C(=O)NC2CCCCCC2)cc1 (configuration not stated),-1.17,0%,6.98,-0.68%,0.563%
C[C@@H]1CC[C@]2(C(=O)O)CC[C@]3(C(=O)O)C(=CCC4[C@@]5(C)CC[C@H](O[C@@H]6O[C@@H](C)[C@H](O[C@@H]7O[C@H](CO)[C@@H](O)[C@H](O)[C@H]7O)[C@@H](O)[C@H]6O)C(C)(C)C5CC[C@]43C)C2[C@H]1C (some centres not stated),0.488,1.63%,8.2,-12.4%,6.32%
Cc1cc2c(cc3n2CC(C)(C(=O)NC2CCCCC2)N(C2CCCCC2)C3=O)o1 (configuration not stated),0.265,3.11%,-5.59,-3.67%,-6.06%
Cc1csc(S(=O)(=O)N2CC[C@@H]3[C@@H](CCC(=O)N3CCN)C2)c1,-4.09,-3.35%,-1.38,-12.2%,5.29%
COc1ccc(NC(=O)CSc2nnc3n(CC(C)C)c(=O)c4ccccc4n23)cc1OC,-8.86,0.799%,3.56,-3.38%,-2.46%
CC(C)CNC(=O)c1ccc2c(=O)n(Cc3ccccc3)c3nn(C)c(=O)n3c2c1,-3.35,1.15%,2.14,-7.53%,-4.05%
COc1cc(CCc2cc(NC(=O)c3ccc(N4C[C@@H](C)N[C@@H](C)C4)cc3)n[nH]2)cc(OC)c1,-5.9,9.9% and 12.4%,-22.7,-5.92% and -9.48%,-1.47% and 3.72%
CCCn1c(=O)c2cc(Cl)ccc2n2c(=O)n(CC(=O)Nc3ccc(OC)c(OC)c3)nc12,2.54,0%,11.2,6.86%,2.91%
C1CCC(COCCc2noc(C3CNC3)n2)C1,-21.9,-12.3%,-5.7,-16.2%,-8.93%
CCC(CNc1nc(CCN)nc2ccccc12)N1CCN(C)CC1 (configuration not stated),-5.33,-6.29%,-16.3,-11.6%,-8.53%
Cc1cc(OCCCS(C)(=O)=O)cc(C)c1-c1cccc(COc2ccc3c(c2)OC[C@H]3CC(=O)O)c1,–,7.16%,–,-23.6%,-6.31%
C=C[C@H]1[C@H](O[C@@H]2O[C@H](CO)[C@@H](O)[C@H](OC(=O)/C=C/c3ccc(O)c(OC)c3)[C@H]2O)OC=C2C(=O)OCC[C@]21O,0,3.87%,3.25,-8.03%,6.37%
CCN(CC)C(=S)SSC(=S)N(CC)CC,-52.2,7.24%,2.75,-5.37%,4.27%
COc1ccccc1CN1C(=O)c2ccccc2CC1(C)C(=O)NC1CCCCC1 (configuration not stated),-3.69,6.78%,1.58,-2.53%,-3.43%
O=S(=O)(NCc1cccnc1Oc1ccc(F)cc1F)c1cccnc1,-1.71,-0.111%,0.303,0.643%,0.495%
C=C[C@@]1(C)CC(=O)[C@]2(O)[C@@]3(C)[C@@H](O)CCC(C)(C)[C@@H]3[C@H](O)[C@H](OC(C)=O)[C@@]2(C)O1,–,7.65%,–,-2.48%,7.16%
Cc1ccc(NC(=O)N2CCn3cccc3C2C)cc1C (configuration not stated),-6.08,0%,-3.05,-8.79%,-3.44%

Structure (SMILES),"activity change, negative = inhibition [1] [%]","activity change, negative = inhibition [2]","activity change, negative = inhibition [3] [%]","activity change, negative = inhibition [4]","activity change, negative = inhibition [5]"
Cc1cccc(C(=O)N2CC(Oc3ccc(-c4noc(C5CCOCC5)n4)cc3)C2)c1,-9.3,-2.95%,-2.13,-12.4%,-1.09%
CN1C(=O)c2cc3ccccc3n2CC1(C)C(=O)NCC(=O)NCc1cccs1 (configuration not stated),5.08,-2.34%,7.93,11.8%,0.899%
CCOc1ccc(C(=O)Cn2nc3n(CC(C)C)c(=O)c4ccc(C(=O)NCC(C)C)cc4n3c2=O)cc1,4.26,2.22%,4.64,1.81%,-1.27%
NCCc1noc(-c2ccccc2)n1,0.501,0.583%,3.4,-3.36%,0.551%
CCOC(=O)c1cc2n(n1)CC(C)(C(=O)NC1CCCCCC1)N(Cc1ccc(OC)cc1)C2=O (configuration not stated),0.564,1.51%,8.28,10.1%,0.019%
COCCN1CC(C(=O)N2CCN(c3ncccc3C#N)CC2)CCC1=O (configuration not stated),-0.6,-1.19%,0.523,-1.32%,1.83%
COc1ccc(-c2nc(Cn3c(-c4ccc(Cl)cc4)nc(C)c(CCO)c3=O)c(C)o2)cc1,-5.72,-5.45%,-3.54,-10.8%,0.327%
COc1ccc2c(c1O)OC(C)(C)c1c-2ccc2c1C(=O)N(c1ccc(C(=O)c3ccccc3)cc1)C2=O,–,-18%,–,-34.8%,-11.6%
CC(C)NC(=O)c1ccc2c(=O)n(C(C)C)c3nn(Cc4cccc(F)c4)c(=O)n3c2c1,-4.14,5.97%,3.63,-7.69%,3.87%
CCOc1ccc(C2c3cccn3-c3sc4c(c3CN2C(=O)Nc2ccccc2F)CCCC4)cc1 (configuration not stated),-2.21,0.555%,-1.36,-2.3%,3.28%
CCCN1C(=O)c2c(C(=O)NCc3ccc(OC(C)C)cc3)ncn2CC1(C)C(=O)NCc1ccc(C)cc1 (configuration not stated),4.19,0%,10.6,1.68%,11.2%
CC1(C(=O)NC2CCCCCCC2)Cn2c(cc3sccc32)C(=O)N1Cc1ccccc1F (configuration not stated),1.61,1%,4.49,2.4%,-0.115%
CC1CC(C)CN(CCCN2C(=O)c3ccc(-c4ccco4)n3CC2(C)C(=O)NC2CCCC2)C1 (configuration not stated),4.19,4.93%,0.849,9.2%,1.49%
CCOC(=O)c1cc2n(n1)CC(C)(C(=O)NCCC(C)C)N(Cc1ccc(C)cc1)C2=O (configuration not stated),-2.1,4.96%,0.375,4.88%,-3.07%
O=C(NCc1nc(-c2ncccn2)no1)C1CC2(CCNCC2)CN1 (configuration not stated),1.25,-2.09%,-0.133,-0.838%,1.34%
Cc1ccc(CN2C(=O)NC3(CCN(C(=O)Cc4cccc(F)c4)CC3)C2=O)cc1,-2.42,3.92%,2.31,-4.8%,-0.955%
c1csc(CNc2ncnc3ccc(-c4ccc5c(c4)OCO5)cc23)c1,–,-7.4%,–,-21.1%,-7.92%
Cn1ccnc1CN1C(=O)CO[C@H]2CN(C(=O)c3cnccn3)C[C@H]21,-2.61,-3.7%,-1.22,-5.66%,-1.17%
COc1ccc(CNC(=O)c2cc3n(n2)CC(C)(C(=O)NC2CCCCC2)N(C)C3=O)c(OC)c1 (configuration not stated),0.995,2.29%,-7.22,2.05%,-1.2%
CC(C)c1cc2n(n1)CC(C)(C(=O)NC1CCCCC1)N(Cc1ccccc1Cl)C2=O (configuration not stated),-1.4,3.58%,1.98,2.2%,-1.57%

Structure (SMILES),"activity change, negative = inhibition [1] [%]","activity change, negative = inhibition [2]","activity change, negative = inhibition [3] [%]","activity change, negative = inhibition [4]","activity change, negative = inhibition [5]"
CCOc1ccccc1NC(=O)CN1C(=O)C(c2ccccc2)=NC12CCCCCC2,-0.949,-2.69%,-0.04,-5.07%,1.63%
O=C(NCc1ccc(N2CCOCC2)cc1)c1cc[nH]c1C1CCCNC1 (configuration not stated),-6.45,-8.54%,-43.4,-10.2%,-11.2%
Nc1c2c(nc3ccccc13)CCCC2,4.71,12.1%,-85.5,-10.3%,5.06%
COc1c(F)cccc1C(=O)N1CCc2onc(-c3ccccc3F)c2C1,-5.68,-0.234%,-2.46,-18.9%,-3.6%
CCCC(N[C@@H](C)C(=O)N1[C@H](C(=O)O)C[C@@H]2CCCC[C@@H]21)C(=O)OCC (some centres not stated),5.09,0.755%,3.59,-11.3%,-0.851%
C[C@H]1[C@H](C)CC[C@]2(C(=O)O)CC[C@]3(C(=O)O)C(=CCC4[C@@]5(C)CC[C@H](O[C@@H]6O[C@H](C)[C@@H](O)[C@H](O)[C@H]6O)C(C)(C)C5CC[C@]43C)[C@H]12 (some centres not stated),4.1,6.03%,9.51,-7.09%,1.89%
COc1ccc(-c2nnn3c2nc(N2CCCC(C)C2)c2ccccc23)cc1 (configuration not stated),-4.94,0%,-2.77,-2.71%,-24.6%
Cc1noc(-c2ccc(-c3ccc(CC(=O)O)cc3)cc2)c1NC(=O)O[C@H](C)c1ccccc1,-13.6,-6.05%,0.627,-23.8%,-10.1%
CCCn1c(=O)c2cc(F)ccc2n2c(SCC(=O)Nc3ccc(OC)cc3)nnc12,-3.43,5.65%,3.14,-3.57%,-0.638%
Cc1cccc(N(C)S(=O)(=O)c2ccc3[nH]c4c(c3c2)CCCC4)c1,3.29,2.58%,2.02,-4.97%,-0.595%
CCOc1ccc(OCC)c(NS(=O)(=O)c2ccc3[nH]c(=O)[nH]c3c2)c1,10,0%,8.64,-4.52%,-5.1%
O=S(=O)(NCc1cccnc1-c1ccc(F)cc1)c1ccc(F)cc1,3.52,1.14%,1.08,0.285%,-1.83%
Cc1ccc(-c2cn(C3CN(C(=O)C4CCC4)C3)nn2)cc1,-2.31,-1.88%,1.65,-1.26%,15.6%
O=C1NC(Cc2c[nH]c3ccccc23)C(=O)NC1Cc1cnc[nH]1 (configuration not stated),1.48,7.24%,9.12,-5.2%,8.54%
O=C(C1CCC1)N1CCC2(CC1)CC(N1CCCCC1)CCO2 (configuration not stated),-3.65,-1.12%,-22.8,-3.27%,1.65%
CC(=O)N1CCC(C(=O)N2CCn3nc(Cc4ccccc4)cc3C2)CC1,-7.38,-7.65%,-3.6,-6.17%,-5.53%
O=C(CCCc1nnc2n3nc(-c4ccccc4)nc3c3ccccc3n12)NCCCN1CCCCC1,-11,-3.34%,-48.1,-0.646%,-14.5%
COc1ccccc1CNC(=O)C1(C)Cn2cnc(C(=O)NC3CCCC3)c2C(=O)N1C1CC1 (configuration not stated),-13.8,-3.14%,-10.2,-12.8%,-10%
O=C(c1cccnc1)N1CCN(c2nnc3ccc(Cl)cn23)CC1,-7.18,0.083%,-0.536,0.641%,1.05%
